This is one part of the list. Further columns of the screen follow, without active or inactive calls. Most of these compounds were active or inconclusive in the main read-out, so they are no random draw.
Assay: growth inhibition of WT strain, primary screen, mitochondrial fusion inhibitor project, WT and mutant strains, chemical genetic (AID 1362); further: tested in S. cerevisiae
Conditions: mitochondrial fusion phenotypic screen, at 10 µM

| Structure (SMILES) | inhibition [%] |
| --- | --- |
| O=c1c2cn[nH]c2nc(SCc2ccccc2F)n1-c1ccc(Br)cc1 | 16.7 |
| NC(=O)c1ccsc1NC(=O)COC(=O)Cc1cccc2ccccc12 | 70.6 |
| Cc1cccc(C)c1OCCNC(=O)c1ccc2ccccc2n1 | 43.4 |
| CN1/C(=C\C(=S)Nc2ccccc2)C(C)(C)c2ccccc21 | 33.6 |
| COc1ccc2c(c1)-c1nc(NC(=O)c3cccs3)sc1CC2 | 32.4 |
| CN(C)CCCN(C(=O)c1sc2ccccc2c1Cl)c1nc2ccc(F)cc2s1 | 44.9 |
| Cc1nn(CCc2nn[nH]n2)c2nc(-c3ccc(C4CCCCC4)cc3)cc(C(F)(F)F)c12 | 61.1 |
| CC1(c2ccc([N+](=O)[O-])cc2)CC(C)(C)N(C(=O)c2ccccc2)c2ccccc21 (stereo not drawn) | 21 |
| COc1ccc2ccc3c(c2c1)N=C[C@]1(O3)N(C)c2ccccc2C1(C)C | 6.69 |
| CNc1ccccc1C(C)(C)c1cc(-c2cccc(OC)c2)no1 | 18.7 |
| CCN(CC1COc2ccccc2O1)C(=S)NC1CC2CCC1C2 (stereo not drawn) | 25.1 |
| C=CCN=c1scc(-c2ccccc2)n1/N=C/c1ccccn1 | 34.9 |
| CCCCn1c(O)c(N=Nc2ccccn2)c2ccccc21 | 51.2 |
| C=CCN1C(=O)/C(=C/c2ccc(OC(C)=O)c(OCC)c2[N+](=O)[O-])SC1=S | 95.4 |
| O=C1c2ccccc2-c2onc3ccc(NCc4ccco4)c1c23 | 52.7 |
| c1csc(C(c2nnnn2C2CCCC2)N2CCCC3(CCCCC3)C2)c1 (stereo not drawn) | 2.63 |
| CCOc1ccc(NCc2nnc(SCc3ccc(Cl)cc3)n2-c2ccccc2)cc1 | -6.96 |
| Cc1ncsc1C(=O)N1N=C2/C(=C/c3ccccc3)CCCC2C1c1ccccc1 (stereo not drawn) | 7.47 |
| CCCCCCCCn1cnc2c(N)c(C)c(C)cc21 | 52.8 |
| CCCN1Cc2cccc(C(=O)NC(CC(=O)OCC)c3ccc(C)cc3)c2C1=O (stereo not drawn) | 41.5 |
| Nc1nc(CSc2ccc(Cl)cc2)nc(N2CCCCC2)n1 | 42.8 |
| O=C(CN1CCN(c2ccccn2)CC1)N1c2ccccc2Sc2ccc(C(F)(F)F)cc21 | -3.88 |
| O=C(Nn1c(-c2ccccc2)nc2ccccc2c1=O)C1CCC1 | -11.4 |

| Structure (SMILES) | inhibition [%] |
| --- | --- |
| CCCn1nc([N+](=O)[O-])c(C(C#N)c2nc3ccccc3s2)c(Cl)c1=O (stereo not drawn) | 67.2 |
| Cn1c(=O)c(NC2CCCCC2)c2c3c(cccc31)C(=O)c1ccccc1-2 | 6.35 |
| CCN(CC)c1ccc(/C=N/NC(=S)NCc2ccco2)cc1 | 15.4 |
| CC(=O)Nc1ccc(C(=O)OCc2ccc(Br)cc2)cc1 | 68.8 |
| CCc1nnc(NS(=O)(=O)c2ccc(N=Cc3c(C)[nH]n(-c4ccc(C)c(C)c4)c3=O)cc2)s1 | 57.9 |
| COc1ccc(/C=N/N(Cc2ccccc2)c2ccccc2)cc1O | 21.1 |
| CCNC(=S)NNC(=O)c1cc(-c2ccc(OC)cc2)nc2ccccc12 | 64.2 |
| COc1ccc(C(C)=O)cc1CSc1nnc(Nc2ccc(C)cc2C)s1 | 13.2 |
| CN(CC(=O)Nc1ccccc1Sc1ccccc1)C1CCCCC1 | 20.7 |
| O=C(CSCc1cnn(-c2ccccc2)c1-n1cccc1)N1CCN(Cc2ccccc2)CC1 | 40.7 |
| Cc1ccc(C(C(=O)NCc2ccccc2)N(Cc2cccs2)C(=O)c2ccc3c(c2)OCCO3)cc1 (stereo not drawn) | 22.4 |
| CC1(C)C2CCC1(C)C(OC(=O)CC(=O)O)C2 (stereo not drawn) | -12.3 |
| CCCCN(CCCC)CCNC(=O)Cc1nc2c(c(=O)[nH]c(=O)n2C)n1C | 7.11 |
| O=C(N=Nc1c(O)n(Cc2ccccc2)c2ccccc12)c1cc2ccccc2cc1O | 19.7 |
| CCOC(=O)N1C(=O)C2(CCCCC2)N(c2ccccc2Cl)C1=S | 52.4 |
| Cc1ccc(-c2cc(-c3ccccc3C)[nH]n2)c(O)c1 | 53.1 |
| Cc1ccc(/C=N/n2cnc3sc(-c4ccccc4)cc3c2=O)o1 | 19.9 |
| c1ccc(CCNc2ncnc3scc(C4COc5ccccc5O4)c23)cc1 (stereo not drawn) | 35.7 |
| CCCCc1ccc(-c2nc(NC(=O)C3C4CCC(O4)C3C(=O)O)sc2C)cc1 (stereo not drawn) | 83 |
| COc1ccc(-c2nc(-c3ccccc3)[nH]c(=O)c2C#N)cc1 | 26.5 |
| CC1CN(c2nc3ccccc3nc2C(C#N)C(=O)OC2CCCCC2)CC(C)O1 (stereo not drawn) | 28.4 |
| CC1CCCCN1c1nnc(NC(=O)c2cc(-c3ccc(Br)cc3)on2)s1 (stereo not drawn) | 41.4 |
| COc1ccc(-c2nc3c(n2O)CCCC3=O)cc1OC | 11.4 |

| Structure (SMILES) | inhibition [%] |
| --- | --- |
| COc1ccc(C(C(=O)Nc2ccc(F)cc2)N(C(=O)Cn2nnc3ccccc32)C2CC2)cc1 (stereo not drawn) | 7.97 |
| O=C(NC(=S)Nc1nc2c(s1)CSc1ccccc1-2)c1ccccc1 | 71.2 |
| FC(F)Sc1ccc(NC(=S)NC(c2ccccc2)c2ccccc2)cc1 | 42.4 |
| Cc1nn(-c2nc3ccccc3[nH]2)c(N)c1-c1ccccc1 | 66.8 |
| CCOC(=O)c1cnc(-n2nc(C)cc2C)nc1NCCc1ccccc1 | 64.3 |
| O=C1c2ccccc2C(=O)N1CC#CCN1CCN(C(c2ccccc2)c2ccccc2)CC1 | 33.9 |
| COc1ccccc1CNC(=O)c1ccc(-c2ccccc2C(F)(F)F)o1 | -11.3 |
| COc1ccc(NC(=O)CNc2cccc(C#N)c2)cc1Cl | 20.7 |
| CC1=[N+](C)c2c(ccc3cccnc23)C1(C)C | 63 |
| Cc1cc2c(cc1C)CSC(c1c(O)ccc3ccccc13)SC2 | 93.2 |
| O=C(CSc1nnnn1-c1ccccc1)NCc1cccs1 | -13.5 |
| CC(C)Nc1nc(NC(C)C)nc(SCCOC(=O)Nc2ccc(Cl)cc2Cl)n1 | 55.2 |
| O=C(NCCCn1ccnc1)C(Cc1ccccc1)N1C(=O)c2ccccc2C1=O (stereo not drawn) | 39.1 |
| CCOc1cccc(-c2nnc3sc(C4CCCCC4)nn23)c1 | 66 |
| Cc1cc(N2CCN(C(=O)c3ccco3)CC2)n2ncc(-c3ccccc3)c2n1 | 87.8 |
| CC(=O)Nc1ccc(S(=O)(=O)N2CCSC2c2ccc(Cl)cc2)cc1 (stereo not drawn) | 18.2 |
| O=C(COC(=O)C12CC3CC(CC(O)(C3)C1)C2)Nc1ccccc1OC(F)F | 16.9 |
| O=C(c1cccc(Br)c1)c1conc1C(=O)c1ccco1 | 23.4 |
| O=C(NCc1ccc(Cl)cc1)c1ccccc1Oc1ccccc1 | 21.6 |
| COc1ccccc1NC(=O)CN1CCN(CC(=O)Nc2ccc(OCc3ccccc3)cc2)CC1 | 58.4 |
| CC(=O)/C(C#N)=C1\NC(=O)C(Cc2ccccc2Cl)S1 (stereo not drawn) | 10.9 |
| Cc1ccc2c(CSc3nnc(C4CC4)n3N)cc(=O)oc2c1C | 4.77 |
